Laboratory results reported in PubChem BioAssay AID493208 (National Center for Advancing Translational Sciences (NCATS), 2011).
Hit rate of the full screen: of about 44,000 compounds, about 340 (0.77%) were called active. Inconclusive results (about 5%) are left out. The call rests on the fitted dose curve; in most records, active means well fitted inhibition curve with a large enough effect; inconclusive means small, poorly fitted or top-dose-only effect; inactive means flat fitted curve, though single readings scatter. The list shows a part of the results.

Test: Acumen qHTS Assay for Inhibitors of the mTORC1 Signaling Pathway in MEF (Tsc2-/-, p53-/-) Cells: Sytravon; further: nearly all actives have a fitted effect of over 50% in size;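 on activity change, negative = inhibition: plate controls were DMSO for no effect and rapamycin for full effect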
Conditions: phospho-rpS6 immunofluorescence/PI, 24 h; series mostly up to 38.3 µM; activity change, negative = inhibition: at the top concentration
In short: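 Immunofluorescence of rpS6 phosphorylation in Tsc2-/-, p53-/- MEFs after 24 h compound exposure, normalized to propidium iodide signal. Activity is expressed as % positive cells, thresholded with 7.5 nM rapamycin.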
Potency means the concentration at half of the fitted maximal effect.

Row | SMILES | activity change, negative = inhibition | Potency
1 | COc1ccc(Cl)cc1S(=O)(=O)N1CCN(CC(=O)Nc2ccccc2C(F)(F)F)CC1 | inactive: 4.71% | –
2 | CCOc1ccc(-n2nc3ccc(NC(=O)c4cccc(F)c4)cc3n2)cc1 | inactive: 0.315% | –
3 | CCOc1ccc(-c2nnc(SCC(=O)NC(C)CC)nc2-c2ccc(OCC)c(OC)c2)cc1OC (stereo not given) | inactive: 1.31% | –
4 | COc1ccc(Cn2cc(C(=O)c3ccc(F)cc3)c(=O)c3cc4c(cc32)OCCO4)cc1 | inactive: 3.2% | –
5 | Cc1nn(C)c(C)c1CCNC(=O)Nc1cccc(Cl)c1C | inactive: 3.37% | –
6 | COc1cc(C(=O)Nc2cccc(OCc3cc(=O)n4cc(C)sc4n3)c2)cc(OC)c1OC | inactive: -7.83% | –
7 | CC(=O)Nc1nonc1-c1nnc(SCC(=O)Nc2cccc(C)c2C)n1-c1ccccc1 | inactive: -2.2% | –
8 | COc1ccc(-c2nc3ccccc3o2)cc1NC(=O)c1ccc(-c2ccc(Br)cc2)o1 | inactive: -2.84% | –
9 | CC1CCN(C(=O)Cn2cc(SCC(=O)Nc3ccccc3C(F)(F)F)c3ccccc32)CC1 | inactive: -6% | –
10 | COc1ccc(-c2nc(CCNC(=O)c3c(F)cccc3Cl)cs2)cc1 | inactive: -18.9% | –
11 | CCCCc1nn2c(=O)cc(COC(=O)c3ccco3)nc2s1 | inactive: 19.3% | –
12 | CCCCNc1ccc(-c2nc(-c3ccncc3)no2)cc1[N+](=O)[O-] | inactive: 0% | –
13 | CCC(C(=O)Nc1ccccc1)n1nc(-c2cc(C)ccc2C)ccc1=O (stereo not given) | inactive: -8.3% | –
14 | Cc1cccc(NC(=O)C2CCCN(S(=O)(=O)c3c(C)n[nH]c3C)C2)c1 (stereo not given) | inactive: -7.31% | –
15 | CCN1C(=O)N(c2ccc(C(C)=O)cc2)S(=O)(=O)c2ccccc21 | inactive: -1.6% | –
16 | CSc1ccc(CCNC(=O)Cn2ncn3c(cc4ccccc43)c2=O)cc1 | inactive: 0.1% | –
17 | CCOc1ccc(-n2c(=O)c3c(C)c(C)sc3n(CC(=O)Nc3ccc(CC)cc3)c2=O)cc1 | inactive: 2.1% | –
18 | Cc1ccccc1Nc1c(-c2cccnc2)nc2cccc(C)n12 | inactive: 5.27% | –
19 | Cn1nc(-c2ccc(OCC(=O)Nc3ccc(Cl)cc3)cc2)c2ccccc2c1=O | inactive: -10.5% | –
20 | CCN(C(=O)c1cc2c(=O)n(CC)c3ccccc3c2s1)c1cccc(C(F)(F)F)c1 | inactive: -9.4% | –
21 | COc1ccc(Br)cc1CNC(=O)c1cnc2sc(N3CCCCCC3)nn2c1=O | inactive: 10.9% | –
22 | CCOC(=O)c1sc(NC(=O)c2nc3nc(C)cc(C(F)F)n3n2)c(C(=O)OC(C)C)c1C | inactive: -0.0648% | –
23 | COc1ccccc1C(=O)Nc1ccccc1C(=O)OCc1cc(=O)n2ccsc2n1 | inactive: 10.7% | –
24 | CCCOc1ccc(CNC(=O)CCCN2C(=O)CSc3c2c(C)nn3-c2ccccc2)cc1 | inactive: -9.27% | –

Row | SMILES | activity change, negative = inhibition | Potency
25 | COc1ccc(C2(N3CCN(c4cc(C)ccc4C)CC3)C(=O)c3ccccc3C2=O)cc1 | inactive: 2.04% | –
26 | CCOc1ccccc1NC(=O)CSc1nc2cc(OC)c(OC)cc2c2nc(CCn3c(C)nc4ccccc43)nn12 | inactive: 1.67% | –
27 | CCCN(CCC)C(=O)Cn1c(SCc2cccc(F)c2)nc2cccnc21 | inactive: 0.34% | –
28 | N#Cc1cccc(NC(=O)C2CCN(S(=O)(=O)c3ccc4c(c3)CCCN4C(=O)C3CCC3)CC2)c1 | inactive: -5.42% | –
29 | Cc1nc(-c2ccc(F)cc2)sc1CCNC(=O)c1ccccc1C(F)(F)F | inactive: -13.5% | –
30 | Cc1ccc2oc(C(=O)NCC(c3ccc(Cl)cc3)N3CCOCC3)c(C)c2c1 (stereo not given) | inactive: -0.164% | –
31 | Cc1ccc(CNC(=O)c2cc3c(=O)n4cccc(C)c4nc3s2)cc1 | inactive: -19% | –
32 | COc1ccccc1NC(=O)CN1C(=O)C(C)(C)c2ccccc21 | inactive: 0.596% | –
33 | Cc1ccc(CNC(=O)CN2C(=O)C3CCCCN3c3ccc(C(=O)N(C)C)cc32)cc1 (stereo not given) | inactive: -1.77% | –
34 | CC1=C(C(=O)Nc2ccccc2C)C(c2sccc2C)n2ncnc2N1 (stereo not given) | inactive: -4.01% | –
35 | Cc1ccc(S(N)(=O)=O)cc1NC(=O)c1c(-c2c(Cl)cccc2Cl)noc1C | inactive: -1.58% | –
36 | CCN(CC)CCNC(=O)CN1C(=O)CSc2ccc(S(=O)(=O)N3CCOCC3)cc21 | inactive: 2.72% | –
37 | Cc1ccccc1CSc1nc2c([nH]c3ccccc32)c(=O)n1-c1ccccc1 | inactive: -2.33% | –
38 | CCc1nnc2c(NCc3ccccc3)nc3ccccc3n12 | inactive: 1.21% | –
39 | Cc1ccc(C(=O)N2CCN(c3ccccc3)CC2)cc1NC(=O)c1nsc2ccccc12 | inactive: -2.62% | –
40 | N#Cc1c(C(F)(F)F)cc(-c2cccs2)nc1SCC(=O)Nc1cccc(Br)c1 | – | active: 11.7 µM
41 | O=C(NCCCN1CCN(c2ccccc2F)CC1)c1ccc2nc(Cc3ccccc3)oc2c1 | inactive: -2.22% | –
42 | CC(C)c1ccc(NC(=O)C2CCCN(S(=O)(=O)c3ccc4[nH]c(=O)oc4c3)C2)cc1 (stereo not given) | inactive: -8.14% | –
43 | Cc1ccc(CNC(=O)CN2N=C(c3ccc(C)cc3)CCC2=O)cc1 | inactive: -13.3% | –
44 | CCCN(CCC)CCCNC(=O)Cn1ncn2c(cc3sc(CC)cc32)c1=O | inactive: -0.145% | –
45 | CCN(CC)S(=O)(=O)c1ccc2c(c1)c(=O)c(C(=O)N1CCN(c3ccc(OC)cc3)CC1)cn2C | inactive: 1.66% | –
46 | CCc1ccccc1NC(=O)c1nc2nc(C)cc(C(F)F)n2n1 | inactive: 0.805% | –
47 | Cc1cccc(-c2nnc(SCC(=O)Nc3ccc(C)c(C)c3)o2)c1 | inactive: -10% | –
48 | CCCS(=O)(=O)c1c(S(=O)(=O)CCC)c2cc(C(C)(C)C)ccn2c1C(=O)c1ccc(C)cc1 | inactive: 0.198% | –

Row | SMILES | activity change, negative = inhibition | Potency
49 | COc1cccc(CN2C(=O)c3ccccc3C2C(=O)NCCc2ccccc2)c1 (stereo not given) | inactive: 1.65% | –
50 | CCC(C)NC(=O)c1ccc(Cn2c(=O)c3cccn3c3cccnc32)cc1 (stereo not given) | inactive: 1.35% | –
51 | COc1ccc(Nc2nnc(-c3cc4cc(Cl)ccc4oc3=O)s2)cc1 | inactive: -0.032% | –
52 | COc1cc(SC)ccc1C(=O)N1CCn2c3c(c4cc(C)ccc42)CCCC31 (stereo not given) | inactive: -3.79% | –
53 | COc1ccccc1CNC(=O)CSc1nc2nc(C)c(Cc3ccccc3C)c(C)n2n1 | inactive: 0% | –
54 | O=C(NCc1ccc(Cl)cc1)C1CCN(C(=O)c2cnn(-c3ccccc3)c2-n2cccc2)CC1 | inactive: 3.85% | –
55 | Cc1ccc(C)c(N2CCN(C(=O)CCc3c(C)nn(-c4ccc(N5CCCC5)nn4)c3C)CC2)c1 | inactive: 0.463% | –
56 | Cc1ccc(C(=O)Nc2c(C)nc3ccccn3c2=O)cc1 | inactive: -15.6% | –
57 | O=C(CCCCCn1c(=O)[nH]c2ccsc2c1=O)NCc1ccccc1 | inactive: 0% | –
58 | Oc1c(C(c2cccc(Br)c2)N2CCCC2)sc2nc(-c3ccco3)nn12 (stereo not given) | inactive: -3.84% | –
59 | CCOc1ccc(CNC(=O)Cn2nc(N3CCN(c4ccccc4)CC3)ccc2=O)cc1 | inactive: -5.76% | –
60 | COc1cccc(C(=O)Nc2nc3nc(C)c(Cc4ccccc4)c(=O)n3[nH]2)c1 | inactive: -0.138% | –
61 | Cc1cccc(N2C(=O)C(CC(=O)Nc3ccccc3)N(C3CCCCC3)C2=O)c1 (stereo not given) | inactive: -11.9% | –
62 | CCOC(=O)c1c(C)[nH]c(C)c1S(=O)(=O)N(C)CC(=O)N1CCN(c2cccc(C)c2C)CC1 | inactive: -7.61% | –
63 | COc1ccccc1C(=O)Nc1ccccc1C(=O)OCc1cc(=O)n2c(C)csc2n1 | inactive: 5.96% | –
64 | COC(=O)c1ccc(NC(=O)CC2C(=O)N(c3cccc(C)c3)C(=O)N2Cc2ccco2)cc1 (stereo not given) | inactive: -1.66% | –
65 | CCOC(=O)c1c(C)oc2nc(C)nc(NCCCN3CCN(c4ccccc4OC)CC3)c12 | inactive: -4.06% | –
66 | Cc1nn(C)c2c1c(-c1ccccc1)cc(=O)n2Cc1ccc(Br)cc1F | inactive: -11.8% | –
67 | O=C(c1cccc([N+](=O)[O-])c1)N1c2nc(-c3ccco3)nn2C2(CCCCC2)[C@@H]2CCCC[C@@H]21 | inactive: -0.899% | –
68 | COc1ccc(-c2cc(C(F)(F)F)nc(SCC(=O)N3CCCCC3)n2)cc1 | inactive: 4.47% | –
69 | CCCCOc1ccc(NC(=O)c2cc3c(n(-c4ccc(Cl)cc4)c2=O)CCCC3=O)cc1 | inactive: -13.7% | –
70 | Cc1ccc(CNC(=O)CCCn2c(=O)c3ccccc3n(Cc3ccccc3Cl)c2=O)cc1 | inactive: 5.33% | –
71 | CCCC(=O)c1cc2c(cc1NC(=O)c1ccccc1F)OCCO2 | inactive: 0.804% | –
72 | COc1cccc(CNC(=O)C2CCCN(S(=O)(=O)c3ccc4c(ccn4C)c3)C2)c1OC (stereo not given) | inactive: 0.796% | –

Row | SMILES | activity change, negative = inhibition | Potency
73 | O=C(Cn1c(=O)n(CCCS(=O)(=O)C2CCCCC2)c(=O)c2ccccc21)Nc1ccccc1F | inactive: -9.83% | –
74 | Cc1cc(C(=O)Nc2cccc(C(F)(F)F)c2)c2c(C)nn(-c3cccc(F)c3)c2n1 | inactive: -2.75% | –
75 | Cc1nn2c3c(cnc2c1-c1ccc(F)cc1)C(=O)CC(c1ccccc1)C3 (stereo not given) | inactive: 1.53% | –
76 | O=S(=O)(NCCc1csc2nc(-c3ccc(F)cc3)nn12)c1ccc2c(c1)OCCO2 | inactive: 0.362% | –
77 | CC(=O)Nc1ccc(NC(=O)CC(C)n2ccc(C)n2)cc1 (stereo not given) | inactive: -18.3% | –
78 | Cc1cc(C)c(-c2csc(-c3cc4ccccc4oc3=O)n2)cc1C | inactive: 12.1% | –
79 | CCCN1CCN(CCNC(=O)Nc2cc(Cl)c(OC)cc2OC)CC1 | inactive: -2.57% | –
80 | O=C(Nc1nnc(N2CCCC2)s1)Nc1cc(F)ccc1F | inactive: -0.272% | –
81 | COc1ccc(NC(=O)CCn2nc(-c3ccc(Cl)cc3)c3ccccc3c2=O)cc1 | inactive: -4.82% | –
82 | O=C(NCCc1ccccc1)c1c2c(nc3ccccc13)C(=O)N(C1CCCCC1)C2 | inactive: -5.78% | –
83 | Cc1oc(-c2cccc(Cl)c2)nc1CN1CCC(C(=O)NCc2ccc(F)cc2)CC1 | inactive: -10.5% | –
84 | CC(=O)c1cccc(NC(=O)C2CCN(c3nnc(-n4cccc4)s3)CC2)c1 | inactive: -8.17% | –
85 | COc1cccc(NC(=O)Cc2ccc(NC(=O)N3CCCCc4ccccc43)cc2)c1 | inactive: 1.28% | –
86 | CCOC(=O)c1c(-c2ccccc2)oc2ccc(OCc3ccc(C)cc3)cc12 | inactive: 4.66% | –
87 | Cc1cc2c(n1-c1ccc(C(=O)NCc3cccc(Br)c3)cc1)CCC(C)C2 (stereo not given) | inactive: 0.0281% | –
88 | Cc1cccc(-c2nc3c4ccccc4n(CC(=O)Nc4cc(F)ccc4F)c(=O)n3n2)c1 | inactive: 1.79% | –
89 | Cc1ccc(N2C(=O)CSC23C(=O)Nc2ccccc23)cc1F (stereo not given) | inactive: -10.4% | –
90 | CCOc1ccc(C(=O)Nc2c(C)nc(Nc3ccccc3)nc2Nc2ccccc2)cc1OCC | inactive: -2.07% | –
91 | COc1ccc(C(=O)Cn2c(=O)n3nc(CCn4nc(C)cc4C)nc3c3cc(OC)c(OC)cc32)cc1 | inactive: 0.0107% | –
92 | COc1ccc(S(=O)(=O)Nc2c(C)n(C)n(-c3ccccc3)c2=O)cc1Br | inactive: -4.95% | –
93 | CC(C)Nc1cc(N2CCN(C3CCCCC3)CC2)c2noc3c2c1C(=O)c1ccccc1-3 | inactive: 2.42% | –
94 | COc1ccc(CCNc2nc(-c3ccccc3OC)cc(C(F)(F)F)n2)cc1OC | inactive: -14.8% | –
95 | COc1ccccc1N1CCN(C(=O)CSc2nc(C)cc(=O)[nH]2)CC1 | inactive: 6.02% | –
